# Measurements published in patent US7803803B2, “Tetrahydrofuro[3,2-B] pyrrol-3-ones as cathepsin K inhibitors” (Amura Therapeutics Limited, priority 2007, dated 2010).
# For some assays here: At least one read-out could not be matched to a standard name with certainty. Some results were stated once for a whole list of compounds, not compound by compound.
# Test system: human osteoclasts
# Experiment: Human osteoclast resorption assay
# Format: cell-based
# Details: not given
# Experimental: Bone resorption was studied using a model where human osteoclast precursor cells were cultured on bovine bone slices for 9 days and allowed to differentiate into bone-resorbing osteoclasts. The formed mature osteoclasts were then allowed to resorb bone. The assay was performed by Pharmatest Services Ltd, Itäinen Pitkakatu 4C, Turku, Finland. After the culture period, bone collagen degradation products were quantified from the culture medium as an index of bone resorption. Inhibitor compounds were added into the cell cultures after the differentiation period and their effects on the resorbing activity of mature osteoclasts were determined. The studies included a baseline group without added compounds and a positive control group where a potent cathepsin K inhibitor E-64 was added.
# Human peripheral blood monocytes were suspended to culture medium and allowed to attach to bovine bone slices. The bone slices were transferred into 96-well tissue culture plates containing culture medium with appropriate amounts of important growth factors favouring osteoclast differentiation, including M-CSF, RANK-ligand and TGF-[…]. The cells were incubated in a CO2 incubator in humidified atmosphere of 95% air and 5% carbon dioxide at 37° C. At day 7 when osteoclast differentiation was complete, the culture medium was replaced with culture medium containing conditions favouring osteoclast activity. The cell culture was continued for an additional 2 days, during which the formed mature osteoclasts were allowed to resorb bone in the presence of vehicle, control inhibitor (E64) or test compounds. At the end of the culture, bone collagen degradation products released into the culture medium were determined using a commercially available ELISA method (CrossLaps® for culture, Nordic Bioscience, Herlev, Denmark) as an index of bone resorption (see Bagger, Y. Z. et al, J. Bone. Miner. Res. 14 (suppl. 1), S370).
row,SMILES,Cell-based % Inh. @ 1 □ M Human
1,"COCCN1CCN(c2ccc(C(=O)N[C@@H](CC(C)C)C(=O)N3C[C@@H](OC)[C@H]4OCC(=O)[C@H]43)cc2)CC1 [Example 28, N—((S)-1-((3aS,6R,6aS)-6-methoxy-3-oxodihydro-2H-furo[3,2-b]pyrrol-4(5H,6H,6aH)-yl)-4-methyl-1-oxopentan-2-yl)-4-(4-(2-methoxyethyl)piperazin-1-yl)benzamide]",44%
2,"CO[C@@H]1CN(C(=O)[C@H](CC(C)(C)C)NC(=O)c2ccc(N3CCN(C)CC3)cc2)[C@@H]2C(=O)CO[C@@H]21 [Example 4, N—((S)-1-((3aS,6R,6aS)-6-methoxy-3-oxodihydro-2H-furo[3,2-b]pyrrol-4(5H,6H,6aH)-yl)-4,4-dimethyl-1-oxopentan-2-yl)-4-(4-methylpiperazin-1-yl)benzamide]",66%
3,"COCCN1CCN(c2ccc(C(=O)N[C@@H](CC(C)C)C(=O)N3C[C@H](OC)[C@H]4OCC(=O)[C@H]43)cc2)CC1 [Example 27, N—((S)-1-((3aS,6S,6aS)-6-methoxy-3-oxodihydro-2H-furo[3,2-b]pyrrol-4(5H,6H,6aH)-yl)-4-methyl-1-oxopentan-2-yl)-4-(4-(2-methoxyethyl)piperazin-1-yl)benzamide]",82%
4,"CCN1CCN(c2ccc(C(=O)N[C@@H](CC(C)C)C(=O)N3C[C@H](OC)[C@H]4OCC(=O)[C@H]43)cc2)CC1 [Example 5, 4-(4-ethylpiperazin-1-yl)-N—((S)-1-((3aS,6S,6aS)-6-methoxy-3-oxodihydro-2H-furo[3,2-b]pyrrol-4(5H,6H,6aH)-yl)-4-methyl-1-oxopentan-2-yl)benzamide]",79%
5,"CCCN1CCN(c2ccc(C(=O)N[C@@H](CC(C)C)C(=O)N3C[C@H](OC)[C@H]4OCC(=O)[C@H]43)cc2)CC1 [Example 13, N—((S)-1-((3aS,6S,6aS)-6-methoxy-3-oxodihydro-2H-furo[3,2-b]pyrrol-4(5H,6H,6aH)-yl)-4-methyl-1-oxopentan-2-yl)-4-(4-propylpiperazin-1-yl)benzamide]",88%
6,"CCN1CCN(c2ccc(C(=O)N[C@@H](CC(C)C)C(=O)N3C[C@@H](OC)[C@H]4OCC(=O)[C@H]43)cc2)CC1 [Example 7, 4-(4-ethylpiperazin-1-yl)-N—((S)-1-((3aS,6R,6aS)-6-methoxy-3-oxodihydro-2H-furo[3,2-b]pyrrol-4(5H,6H,6aH)-yl)-4-methyl-1-oxopentan-2-yl)benzamide]",63%
7,"CO[C@@H]1CN(C(=O)[C@H](CC(C)C)NC(=O)c2ccc(N3CCN(C)CC3)cc2)[C@@H]2C(=O)CO[C@@H]21 [Example 3, N—((S)-1-((3aS,6R,6aS)-6-methoxy-3-oxodihydro-2H-furo[3,2-b]pyrrol-4(5H,6H,6aH)-yl)-4-methyl-1-oxopentan-2-yl)-4-(4-methylpiperazin-1-yl)benzamide]",54%
8,"COCCN1CCN(c2ccc(C(=O)N[C@@H](CC(C)C)C(=O)N3C[C@H](N)[C@H]4OCC(=O)[C@H]43)cc2)CC1 [Example 23, N—((S)-1-((3aS,6S,6aR)-6-amino-3-oxodihydro-2H-furo[3,2-b]pyrrol-4(5H,6H,6aH)-yl)-4-methyl-1-oxopentan-2-yl)-4-(4-(2-methoxyethyl)piperazin-1-yl)benzamide]",25%
9,"COCCN1CCN(c2ccc(C(=O)N[C@@H](CC(C)C)C(=O)N3C[C@@H](O)[C@H]4OCC(=O)[C@H]43)cc2)CC1 [Example 26, N—((S)-1-((3aS,6R,6aS)-6-hydroxy-3-oxodihydro-2H-furo[3,2-b]pyrrol-4(5H,6H,6aH)-yl)-4-methyl-1-oxopentan-2-yl)-4-(4-(2-methoxyethyl)piperazin-1-yl)benzamide]",42%
10,"CCCN1CCC(c2ccc(C(=O)N[C@@H](CC(C)(C)C)C(=O)N3C[C@@H](OC)[C@H]4OCC(=O)[C@H]43)cc2)CC1 [Example 38, N—((S)-1-((3aS,6R,6aS)-6-methoxy-3-oxodihydro-2H-furo[3,2-b]pyrrol-4(5H,6H,6aH)-yl)-4,4-dimethyl-1-oxopentan-2-yl)-4-(1-propylpiperidin-4-yl)benzamide]",70%
11,"CO[C@H]1CN(C(=O)[C@H](CC(C)(C)C)NC(=O)c2ccc(N3CCN(C)CC3)cc2)[C@@H]2C(=O)CO[C@H]12 [Example 2, N—((S)-1-((3aS,6S,6aS)-6-methoxy-3-oxodihydro-2H-furo[3,2-b]pyrrol-4(5H,6H,6aH)-yl)-4,4-dimethyl-1-oxopentan-2-yl)-4-(4-methylpiperazin-1-yl)benzamide]",69%
12,"CCN1CCN(c2ccc(C(=O)N[C@@H](CC(C)(C)C)C(=O)N3C[C@@H](OC)[C@H]4OCC(=O)[C@H]43)cc2)CC1 [Example 8, 4-(4-ethylpiperazin-1-yl)-N—((S)-1-((3aS,6R,6aS)-6-methoxy-3-oxodihydro-2H-furo[3,2-b]pyrrol-4(5H,6H,6aH)-yl)-4,4-dimethyl-1-oxopentan-2-yl)benzamide]",71%
13,"CCCN1CCN(c2ccc(C(=O)N[C@@H](CC(C)(C)C)C(=O)N3C[C@@H](OC)[C@H]4OCC(=O)[C@H]43)cc2)CC1 [Example 16, N—((S)-1-((3aS,6R,6aS)-6-methoxy-3-oxodihydro-2H-furo[3,2-b]pyrrol-4(5H,6H,6aH)-yl)-4,4-dimethyl-1-oxopentan-2-yl)-4-(4-propylpiperazin-1-yl)benzamide]",82%
14,"CO[C@H]1CN(C(=O)[C@H](CC(C)C)NC(=O)c2ccc(N3CCN(C)CC3)cc2)[C@@H]2C(=O)CO[C@H]12 [Example 1, N—((S)-1-((3aS,6S,6aS)-6-methoxy-3-oxodihydro-2H-furo[3,2-b]pyrrol-4(5H,6H,6aH)-yl)-4-methyl-1-oxopentan-2-yl)-4-(4-methylpiperazin-1-yl)benzamide]",81%
15,"COCCN1CCN(c2ccc(C(=O)N[C@@H](CC(C)C)C(=O)N3C[C@H](O)[C@H]4OCC(=O)[C@H]43)cc2)CC1 [Example 25, N—((S)-1-((3aS,6S,6aS)-6-hydroxy-3-oxodihydro-2H-furo[3,2-b]pyrrol-4(5H,6H,6aH)-yl)-4-methyl-1-oxopentan-2-yl)-4-(4-(2-methoxyethyl)piperazin-1-yl)benzamide]",45%
16,"CCCN1CCN(c2ccc(C(=O)N[C@@H](CC(C)C)C(=O)N3C[C@@H](OC)[C@H]4OCC(=O)[C@H]43)cc2)CC1 [Example 15, N—((S)-1-((3aS,6R,6aS)-6-methoxy-3-oxodihydro-2H-furo[3,2-b]pyrrol-4(5H,6H,6aH)-yl)-4-methyl-1-oxopentan-2-yl)-4-(4-propylpiperazin-1-yl)benzamide]",76%
17,"COCCN1CCN(c2ccc(C(=O)N[C@@H](CC(C)C)C(=O)N3C[C@@H](N)[C@H]4OCC(=O)[C@H]43)cc2)CC1 [Example 24, N—((S)-1-((3aS,6R,6aR)-6-amino-3-oxodihydro-2H-furo[3,2-b]pyrrol-4(5H,6H,6aH)-yl)-4-methyl-1-oxopentan-2-yl)-4-(4-(2-methoxyethyl)piperazin-1-yl)benzamide]",49%
18,"CCN1CCN(c2ccc(C(=O)N[C@@H](CC(C)(C)C)C(=O)N3C[C@H](OC)[C@H]4OCC(=O)[C@H]43)cc2)CC1 [Example 6, 4-(4-ethylpiperazin-1-yl)-N—((S)-1-((3aS,6S,6aS)-6-methoxy-3-oxodihydro-2H-furo[3,2-b]pyrrol-4(5H,6H,6aH)-yl)-4,4dimethyl-1-oxopentan-2-yl)benzamide]",87%
19,"CCCN1CCN(c2ccc(C(=O)N[C@@H](CC(C)(C)C)C(=O)N3C[C@H](OC)[C@H]4OCC(=O)[C@H]43)cc2)CC1 [Example 14, N—((S)-1-((3aS,6S,6aS)-6-methoxy-3-oxodihydro-2H-furo[3,2-b]pyrrol-4(5H,6H,6aH)-yl)-4,4-dimethyl-1-oxopentan-2-yl)-4-(4-propylpiperazin-1-yl)benzamide]",84%
20,"CO[C@@H]1CN(C(=O)[C@H](CC(C)(C)C)NC(=O)c2ccc(N3CCN(C(C)C)CC3)cc2)[C@@H]2C(=O)CO[C@@H]21 [Example 22, 4-(4-isopropylpiperazin-1-yl)-N—((S)-1-((3aS,6R,6aS)-6-methoxy-3-oxodihydro-2H-furo[3,2-b]pyrrol-4(5H,6H,6aH)-yl)-4,4-dimethyl-1-oxopentan-2-yl)benzamide]",78%

# Test system: not listed separately
# Experiment: LogD determinations
# Format: physicochemical
# Details: Ion-count method
# Experimental: LogD(PBS) determinations were performed in 96 well microtitre plates using a miniaturised “shake-flask” method. In brief, compounds were taken from 10 mM DMSO stock solutions and added to wells containing equal volumes of phosphate buffered saline (10 mM; pH 7.4) (PBS) and 1-octanol (Sigma-Aldrich, Poole, Dorset, UK) to give a final concentration of 50 μM. The plates were then capped and mixed vigorously for 1 hour on a microtitre plate shaker, after which they were left to stand, allowing the PBS and octanol phases to separate. The PBS layer was analysed by reverse phase HPLC with mass spectrometric detection, using single ion monitoring of the [M+H]^+ species.
# Where AUCstd and AUCpbs are the peak areas from the standard and test ion chromatograms respectively.
row,SMILES,LogD pH 7.4
1,"CCCN1CCN(c2ccc(C(=O)N[C@@H](CC(C)C)C(=O)N3C[C@H](OC)[C@H]4OCC(=O)[C@H]43)cc2)CC1 [Example 13, N—((S)-1-((3aS,6S,6aS)-6-methoxy-3-oxodihydro-2H-furo[3,2-b]pyrrol-4(5H,6H,6aH)-yl)-4-methyl-1-oxopentan-2-yl)-4-(4-propylpiperazin-1-yl)benzamide]",greater than 0.8
2,"CCCN1CCN(c2ccc(C(=O)N[C@@H](CC(C)(C)C)C(=O)N3C[C@@H](OC)[C@H]4OCC(=O)[C@H]43)cc2)CC1 [Example 16, N—((S)-1-((3aS,6R,6aS)-6-methoxy-3-oxodihydro-2H-furo[3,2-b]pyrrol-4(5H,6H,6aH)-yl)-4,4-dimethyl-1-oxopentan-2-yl)-4-(4-propylpiperazin-1-yl)benzamide]",greater than 0.8
3,"CCCN1CCN(c2ccc(C(=O)N[C@@H](CC(C)(C)C)C(=O)N3C[C@H](OC)[C@H]4OCC(=O)[C@H]43)cc2)CC1 [Example 14, N—((S)-1-((3aS,6S,6aS)-6-methoxy-3-oxodihydro-2H-furo[3,2-b]pyrrol-4(5H,6H,6aH)-yl)-4,4-dimethyl-1-oxopentan-2-yl)-4-(4-propylpiperazin-1-yl)benzamide]",greater than 0.8
